In PMC7286521:
Results are given in words; binding and its absence hold for the method and conditions named. In cells and extracts the contact can be indirect. Some entries that bind do so weakly or less than the wild type. Blank lines part the entries; values can stand above or below the molecule they belong to.

Sequences of proteins named here, by UniProt entry; tags and fusion partners are left off. A change or cut given only in a name is not applied to a line headed by its entry.
UniProt P46938: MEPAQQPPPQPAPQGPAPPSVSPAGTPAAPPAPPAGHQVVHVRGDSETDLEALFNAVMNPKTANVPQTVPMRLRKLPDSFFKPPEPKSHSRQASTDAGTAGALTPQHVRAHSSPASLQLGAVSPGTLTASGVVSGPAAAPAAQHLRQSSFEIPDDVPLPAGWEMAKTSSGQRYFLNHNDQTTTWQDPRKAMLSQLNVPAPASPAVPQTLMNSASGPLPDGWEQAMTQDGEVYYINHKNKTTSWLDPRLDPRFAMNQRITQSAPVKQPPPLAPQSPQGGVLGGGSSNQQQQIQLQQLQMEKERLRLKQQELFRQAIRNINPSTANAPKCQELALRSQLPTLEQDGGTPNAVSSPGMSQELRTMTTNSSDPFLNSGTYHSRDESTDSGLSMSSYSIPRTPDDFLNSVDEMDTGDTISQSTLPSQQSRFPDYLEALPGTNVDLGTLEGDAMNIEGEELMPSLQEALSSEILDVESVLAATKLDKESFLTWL
UniProt P10244: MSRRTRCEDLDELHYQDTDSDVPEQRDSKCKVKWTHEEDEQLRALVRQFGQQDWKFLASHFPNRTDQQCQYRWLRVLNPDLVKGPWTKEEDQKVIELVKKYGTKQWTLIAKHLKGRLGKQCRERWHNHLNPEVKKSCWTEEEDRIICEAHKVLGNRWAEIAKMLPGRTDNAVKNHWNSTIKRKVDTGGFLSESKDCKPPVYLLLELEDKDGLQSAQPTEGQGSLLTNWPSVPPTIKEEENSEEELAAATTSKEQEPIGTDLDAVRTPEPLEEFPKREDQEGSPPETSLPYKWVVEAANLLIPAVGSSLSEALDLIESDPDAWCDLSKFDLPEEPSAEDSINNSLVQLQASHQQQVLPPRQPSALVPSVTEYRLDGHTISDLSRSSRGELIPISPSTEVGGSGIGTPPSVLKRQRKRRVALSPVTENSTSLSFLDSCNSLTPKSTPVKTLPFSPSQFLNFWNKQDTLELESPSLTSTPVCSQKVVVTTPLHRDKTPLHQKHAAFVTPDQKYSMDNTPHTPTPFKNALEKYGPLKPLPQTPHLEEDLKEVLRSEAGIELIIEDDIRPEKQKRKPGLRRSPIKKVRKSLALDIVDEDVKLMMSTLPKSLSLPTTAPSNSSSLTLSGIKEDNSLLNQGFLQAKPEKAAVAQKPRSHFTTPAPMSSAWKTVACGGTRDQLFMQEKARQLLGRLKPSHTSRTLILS
UniProt P48972: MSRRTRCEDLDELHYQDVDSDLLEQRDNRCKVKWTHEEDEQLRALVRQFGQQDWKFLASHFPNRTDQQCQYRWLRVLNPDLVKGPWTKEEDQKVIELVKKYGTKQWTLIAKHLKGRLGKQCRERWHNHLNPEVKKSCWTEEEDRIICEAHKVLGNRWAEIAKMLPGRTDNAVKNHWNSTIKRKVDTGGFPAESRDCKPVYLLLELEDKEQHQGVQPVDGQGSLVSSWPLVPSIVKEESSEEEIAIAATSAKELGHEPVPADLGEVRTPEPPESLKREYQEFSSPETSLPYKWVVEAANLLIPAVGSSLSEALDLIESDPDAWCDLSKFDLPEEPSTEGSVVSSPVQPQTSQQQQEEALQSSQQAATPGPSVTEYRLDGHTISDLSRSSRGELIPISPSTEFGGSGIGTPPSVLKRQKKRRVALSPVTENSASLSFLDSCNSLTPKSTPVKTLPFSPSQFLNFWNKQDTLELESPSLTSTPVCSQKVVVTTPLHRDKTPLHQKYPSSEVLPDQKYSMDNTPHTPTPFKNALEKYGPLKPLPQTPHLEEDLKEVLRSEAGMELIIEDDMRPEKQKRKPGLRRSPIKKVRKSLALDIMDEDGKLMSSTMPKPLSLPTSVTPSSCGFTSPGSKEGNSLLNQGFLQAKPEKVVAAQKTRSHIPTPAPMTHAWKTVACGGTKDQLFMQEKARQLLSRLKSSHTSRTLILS
UniProt Q15691: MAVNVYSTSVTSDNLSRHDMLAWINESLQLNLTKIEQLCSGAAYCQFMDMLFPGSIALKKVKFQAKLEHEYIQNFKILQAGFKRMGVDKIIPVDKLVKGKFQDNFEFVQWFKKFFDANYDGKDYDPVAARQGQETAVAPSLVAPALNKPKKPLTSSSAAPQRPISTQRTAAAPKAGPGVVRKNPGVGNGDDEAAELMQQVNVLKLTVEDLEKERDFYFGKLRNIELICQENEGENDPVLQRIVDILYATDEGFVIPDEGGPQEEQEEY

How the values were obtained:
[1] = biological target: flag-YAP (human) (UniProt P46937); assay: co-IP; ectopically expressed flag-YAP and HA-B-MYB in C2C12 myoblasts
[2] = biological target: FLAG-YAP (aa 155–504) (human) (UniProt P46937); assay: co-IP; HeLa cells expressing HA-B-MYB constructs and flag-YAP constructs; 1 mg whole cell lysate in TNN buffer immunoprecipitated with FLAG antibody on protein G dynabeads, five washes, immunoblot with anti-HA
[3] = biological target: FLAG-YAP (aa 264–504) (human) (UniProt P46937); assay: as above
[4] = biological target: FLAG-YAP (aa 288–504) (human) (UniProt P46937); assay: as above
[5] = biological target: FLAG-YAP (aa 2–154) (human) (UniProt P46937); assay: as above
[6] = biological target: FLAG-YAP (aa 2–263) (human) (UniProt P46937); assay: as above
[7] = biological target: FLAG-YAP (aa 2–287) (human) (UniProt P46937); assay: as above
[8] = biological target: FLAG-YAP (aa 2–499) (human) (UniProt P46937); assay: as above
[9] = biological target: FLAG-YAP Δ155–263 (human) (UniProt P46937); assay: as above
[10] = biological target: flag-YAP (human) (UniProt P46937); assay: as above
[11] = biological target: GST-WW1 (human) (UniProt P46937); assay: pull-down; recombinant GST or GST-YAP fusions immobilised on glutathione beads (5 μg by the legend, 5 mg by the methods), incubated with lysates of HeLa cells expressing HA-tagged proteins, 3 hours at 4°C, six washes with TNN buffer, anti-HA immunoblot; only the target purified
[12] = biological target: GST-WW1/2 (human) (UniProt P46937); assay: as above
[13] = biological target: GST-WW2 (human) (UniProt P46937); assay: as above
[14] = biological target: YAP (endogenous, mouse embryonic cardiomyocytes) (mouse (endogenous in E14.5 cardiomyocytes)) (UniProt P46938); assay: proximity ligation; Duolink In Situ PLA in E14.5 mouse cardiomyocytes with antibodies to YAP, LIN9 and B-MYB phospho-T487; controls: siRNA depletion of YAP/TAZ, LIN9 or B-MYB, deletion of Lin9, one antibody omitted

binding [1]: binds
binding [2]: binds
binding [3]: no binding
binding [4]: no binding
binding [5]: no binding
binding [6]: binds
binding [7]: binds
binding [8]: binds
binding [9]: no binding
binding [10]: binds
binding [11]: binds
binding [12]: binds
binding [13]: binds
Molecule: HA-B-MYB (from UniProt P10244 1-700)

binding [11]: no binding
Molecule: HA-B-MYB(2–79) (from UniProt P10244 2-79) (domain or fragment)

binding [11]: no binding
Molecule: HA-B-MYB(242–410) (from UniProt P10244 242-410) (domain or fragment)

binding [11]: binds
Molecule: HA-B-MYB(2–241) (from UniProt P10244 2-241) (domain or fragment)

binding [14]: binds
Molecule: B-MYB (endogenous, mouse embryonic cardiomyocytes) (from UniProt P48972 1-704)

binding [12]: no binding
Molecule: HA-EB1 (from UniProt Q15691 1-268)

binding [14]: binds
B1: LIN9 (endogenous, mouse embryonic cardiomyocytes) (protein, UniProt Q8C735 1-542)
chain: MAELDQLPDESSSAKALVSLKEGSLSNTWNEKYSSLQKTPVWKGRNAGPAVEMPFRNSKRSRLFSDEDDRQINTKSPKRNQRVAMIPQKFTATMSTPDKKASQKIGFRLRNLLKLPKAHKWCIYEWFYSNIDKPLFEGDNDFCVCLKESFPNLKTRKLTRVEWGKIRRLMGKPRRCSSAFFEEERSALKQKRQKIRLLQQRKVADVSQFKDLPDEIPLPLVIGTKVTARLRGIHDGLFTGQIDAVDTLNATYRVTFDRTGLGTHTIPDYEVLSNEPHETMPISAFGQKQRPSRFFMTPPRLHYTPPLQSPITDGDPLLGQSPWRSKVSGSDTETLGGFPVEFLIQVTKLSKILMIKKEHIKKLREMNTEAEKLKSYSMPIGIEFQRRYATIVLELEQLNKDLNKVLHKVQQYCYELAPDQGLQPADQPTDMRRRCEEEAQEIVRQANSASGQPCVENENLTDLISRLTAILLQIKCLAEGGDLNSFEFKSLTDSLNDIKNTIDASNISCFQNNVEIHVAHIQSGLSQMGNLHAFAANNTNRD
